The results in this text go back to PubChem BioAssay (NCI).

Experiment in all cases: NCI-60 one-dose screen, 48 h (100 = growth as untreated, 0 = no growth, -100 = all killed)
Assay [1] has as its system UACC-62 melanoma. The note with it: 2.5 mM.
For assay [2], the system named is LOX IMVI melanoma. The note with it: 2.5 mM.
In assay [3] the test system is SK-MEL-28 melanoma. The note with it: 2.5 mM; runs of 1991.

Where a structure was tested more than once in an assay, its records may differ in their call.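 Each cell line was grown in a 96-well plate and treated with one concentration of compound for 48 hours. Values below 10 were considered active.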 For part of its entries the source gives two or more results. They are shown here; other results are not. There may be further records. This drug was run again and again over the years, at its own concentration, as given; each value is one run. Signs of the kind (2×) count equal records among those shown.

As to `O=c1[nH]cc(F)c(=O)[nH]1`, the growth result in assay [1] (runs of 1997) was “active: -90.4, 0.112, -9.66, -2.88, -26.9, -8.41, 8.2, -11, -17.8, -13.3, -24, -63.7, -94.9, 1.09, -39.6, -76.4, -43.1, 0.319, -7, 7.9, -12.2, -44.1, -100, -71.1, -3.83, -16.2, -10.9, -4.52, 0.679, -33.2, -39.3, -17.1, -7.04, -53.6, -21.5, -51.8, -32.3, -26, -32.8, -22.6, -92, -10.4, 1.67, -39.1, -56.8, -82.7, -80.8, -92.3, -25.8, -15.7, -18.5, -18.9, -48.2% and inactive: 27.5, 20.6, 12, 14.7, 15.2, 83.1, 111, 13.3%”; in assay [1] (runs of 1998) it was “inactive: 104, 21.6, 11.7, 15.6, 17.3, 12.6% and active: 3.66, -54.1, -54.3, -54.5, -54.7, -42.1, -96, -96.8, -98.4, -95.2, -74.2, -33.2, -37, -63.1, 6.15, -55.5, -24.5, -0.113, 5.31, -24.6, -57.3, -42.4, -54.9, 7.52, 4.57, 6.56, -11.2, 9.94, 9.22, -39.9, -30.7, -33.7, -28.9, -30.2, -19.4, -40.9, -39.2, -20.1, -42.5, -22.6, -76.2, -47.1, -60.5, -10.1, -22.4, -31.4 (2×), -40.2, -22.1, -61.4, -57.9, -39.4, -49.2, -40.7, -59.7, -59.1, 3.38, -24.2, -31, -34.6, -35.3, -48.5, -5.09, -41, -45, 1.36%”; in assay [1] (runs of 1999), “inactive: 22.4% and active: -3.35, -44.7, -33.1, -24.9, -60.6, -59.9, -35.2, -45.4, -33.4, -38, 7.23, -69.6, -37.3, -42.4, -98.1, -60, -28.5, -79.5, -17.7, -93.8, -93.1%”; in assay [1] (runs of 2000), “active: -91.8, -74.2, -87, -93.7%”; in assay [2] (runs of 1991), “active: 3.5, 1.31, -2.98, -0.319, 4.08, -6.14, 1.55, -68.8, -73.8, -8.91, -20, -83.7, 4.96, -28.5, -24.4, -72, -87%”; in assay [2] (runs of 1992) it was “active: 3.28, -36.9, -46.1, -24.5, -20.5, -39.8, -64.6 (2×), -30.9, 2.74, 8.04, -16.5, 0.141, -35.3, -86.5, 1.75, 5.15, 4.53, -17, -5.52, -20.4, 1.93, 7.89, 0.242, -68.5, -51.5 (2×), -82.1, -75, -72.4, -82.9, -55.3, -17.2, -5.59, -41.8, 2.36, -19.5, 0.445, -32.7, 4.15, -13.7, -85.4, -38.3, -26.8, -53.3, -71.5, -55.7, 1.07, -8.14, -27.7, -58.2, -40.5, 0.592, -38.7, -43.7, -8.17, -34.8, -33.8 (2×), -26, -11.9, -48.5, -46.6, -36.4, -10.9, -7.57, -18.3, -31.1, -4.84, -97.8, -51.8, -94.4, -89.2, -34.3, 1.38, -56.3, -56.2 (2×), -53.8, -31.2, 2.15, -45.7, -6.73, -30, -88.6 (2×), -91.6, -86, -19.8 (2×), 0.111, -46.9, -8.42, -64, -32.9, -25.4, -16.9, -13.4, -49.8, -3.94, -91.7, -80.9, -29.5, -4.25, -9.51, -31.6, -78, -89.3, -0.13, -9.57% and inactive: 19.3, 48.1, 11, 83.9%”. The growth entry in assay [2] (runs of 1993) was “active: 6.83, -59.7, 3.11, -4.27, -49.6, -0.536, -28, -58.9, -31.4, -33.4, -11.3, 8.61, -58.6, -40.6, -29.5, -5, 2.52, 1.92, -8.96, 5.1, 7.51, -50.6, 3.14, 8.23, -21.2, -66.4, -73.7, -41.8, -43.5, -80.9, -3.03, 0.206, -12.9, -46.2% and inactive: 10.9, 18.3, 84.6, 10.5%”; in assay [2] (runs of 1994), “active: 9.63, 0.0947, 7.33, -16.8, -50.2, 5.97, -13.9, -45.7, -35.8, 0.571, 1.95, 5.69, -2.6, -22.2, 2.82, -8.01, -25.5, -25.3, 4.5, -81.4, 8.88, 0.648, 0.99, -23, -34.7, 3.74, 0.385, -11% and inactive: 12.9%, 12.5%, 14.9%”; in assay [2] (runs of 1995) it was “active: 1.78, -84.3, 8.74, -2.48, -21, -81, -27.6, -76.4, -20.9, -48, -59.9, -17.4, -41.3, -61.3, -43.9, -73.4, -90.2, 0.153, -15.1, 8.96, 2.4, -16.4 (2×), -16.6, -59.6, -37.5, -13.4, -22.2, 2.54, -23.7, -4.3, -31, 1.72%”; in assay [2] (runs of 1996) it was “active: -7.1, -12.5, -7.48, 0.79, -85.6, 7.08, 0.0355, 5.23, -44.8, 2.79, -6.61, 3.4, -14.2, -14.7, -28.2, 4.03, 9.89, -12.7, 4.84, 0.836, -38.5, -4.98, -10.5, -12.1, 1.28, 1.78, -25.5, -24, -39.5, -37.9, -18.9, -12.9, 7.18, -14.5, -26.6, -51.7, -59.1, -8.8, 0, -18.4, 2.52, -20.6, 6.39, -6.2, -0.928, 5.48, 6.81, -60.9, -17.6, -30.7% and inactive: 15.2, 38, 11, 17.4%”; in assay [2] (runs of 1997), “active: -9.83, 3.19, -17.6, -15.5, -24.8, -25.5, -13.8, -33.4, -14.4, -15.9, -66.4, -23.2, -13.1, 1.71, 0, -22.3, 1.45, 6.63, 4.23, -66.9, -20.1, -27.5, 2.28, -33.8, -19.2, 5.3, -13.6, -7.8, 6.13, 3.47, -100, -36.3, 2.21% and inactive: 28.7%, 10.3%”; in assay [2] (runs of 1998), “active: 7.4, 3.64, -14.3, -17.6, 8.82, -34.4, -19.1, -13.5, -38.1, -13.1, -1.27, 2.67, 9.19, -33.8, -47.8, 7.83, -19.3, -19.7, -27.5, 4.04, -9.71, 1.64, 2.64, -22% and inactive: 17.8%”. For the same molecule, the growth result is “active: -59.6, -20.1, 0.022, -29, -28.1, 0.0616, -100, 1.68, 1.14, 9.5, 4.71, -55.4, -50, 0.805, 0.231, 2.61%” in assay [2] (runs of 1999); “active: -62.4, 1.05, 2.32, 0.0699%” in assay [2] (runs of 2000); “active: -1.02, -5.01, -3.84, 7.43% and inactive: 44.3, 39.1, 35.3, 20, 45.5, 32.6, 30.5, 35.5, 27.9, 42.5, 26.9, 32.3, 40.8, 21.1, 37.2%” in assay [3].
